Some of the results follow. At the low end of the ranking, values are background and their order means little.

This assay has as its target SIX1 homeodomain (reference allele) (UniProt Q15475). Kind of assay: universal protein binding microarray. The conditions noted are these: Universal all-10-mer PBM (8x60K, AMADID 030236), 300 nM GST-tagged protein, Alexa Fluor 488 anti-GST; buffer, salt, pH and temperature not stated; high values mean tight binding; most listed sequences are background and not binding sites; double strand, one strand shown.
As for GATATTGC, the binding signal amounted to 0.323 E-score. As for ACAGTGGA, the figure is 0.0419 E-score; as for CTTGTACA, -0.145 E-score; as for AAAAACAT, -0.277 E-score. In the case of TCGACTCA, the binding signal was -0.0242 E-score. Consider AATGTCAA, for which the binding signal is -0.108 E-score. For AGATTACA, the binding signal came to 0.184 E-score. With TAAATTGA, the binding signal was -0.0794 E-score. Regarding AGTATGAG, the binding signal came to 0.0528 E-score. The value for ACTTCTAG was -0.121 E-score; that for GAGTACCA was -0.0218 E-score; that for CGAAAAGA was 0.0332 E-score. In the case of CTAAATAA, the binding signal is -0.0107 E-score. As for ATAGCTGA, the binding signal was determined as 0.146 E-score. With GGGAGACA, the binding signal turned out to be 0.143 E-score.

For the sequence CAGCACTA, the binding signal is -0.0859 E-score. As for ATATCGAC, the binding signal was determined as 0.379 E-score. As for CAGCAGGG, the figure is -0.0493 E-score; as for CGGCATTC, -0.00536 E-score. For TAACCTGA, the binding signal is -0.0767 E-score. Regarding AAAGCGCT, the binding signal is -0.286 E-score. As for CTAATGAC, the figure is -0.16 E-score; as for AAATTTTC, -0.126 E-score; as for CGACAATC, 0.0153 E-score. Regarding AAAGCGAT, the binding signal was 0.223 E-score. For the sequence TGCGTCCA, the binding signal is -0.208 E-score. As to ACTATCCG, the binding signal worked out at 0.35 E-score. In the case of ATCTGTGC, the binding signal is 0.153 E-score. For the sequence CAGCCAAA, the binding signal was -0.0882 E-score.

With AGATTAAT, the binding signal stood at 0.2 E-score.

TCAATCAA: the binding signal amounted to 0.0286 E-score. The value for ATCCATGC was 0.253 E-score; that for ACTTAACA was -0.212 E-score; that for ATAGCTAC was 0.163 E-score. Take ACTAACCT: the binding signal was -0.162 E-score. With ATTATGAA, the binding signal was 0.141 E-score. The value for ACCGAATG was 0.0121 E-score; that for GGGTCAAA was 0.0897 E-score; that for TGCGTAAA was -0.266 E-score.

In the case of AATTGCAG, the binding signal was -0.28 E-score.

For AATCCTAG, the binding signal is -0.0499 E-score. For AGTCACCG, the binding signal was -0.102 E-score.

Consider GGAGTGGA, for which the binding signal was -0.141 E-score. The value for TCCGTTAA was -0.0746 E-score. GTTAATGA: the binding signal is -0.156 E-score.

As to GCACCGGA, the binding signal was found to be 0.0357 E-score. The value for ACTTTCGA was -0.0418 E-score. Turning to CACCGACC, the binding signal was -0.0487 E-score.

For CATATGAA, the binding signal is -0.0809 E-score. As for AGAGAAGA, the figure is -0.037 E-score; as for ACGCGACA, 0.0124 E-score; as for GACACGTC, -0.112 E-score. AGGCTAGC: the binding signal was -0.0839 E-score. In the case of ACGATCGA, the binding signal stood at 0.151 E-score. Turning to CCTAGGAC, the binding signal is -0.124 E-score. As for GCTGCGTA, the binding signal was -0.0881 E-score. On to ATGAGCAT, for which the binding signal is -0.0884 E-score. Consider CGAGTGAA, for which the binding signal is -0.0677 E-score. The value for ACATATTA was 0.161 E-score. Take ATTCTCTC: the binding signal was -0.0415 E-score. As to ACAAGAAC, the binding signal is -0.169 E-score. For the sequence ACCCACGT, the binding signal was found to be 0.0305 E-score. Regarding ATATTGAA, the binding signal was 0.196 E-score. The value for TGAGTCAA was -0.143 E-score; that for CGGGCCCC was -0.214 E-score. CAACGTAA: the binding signal was -0.168 E-score. As for ATGTCTGA, the figure is 0.141 E-score; as for CTCCCAAG, -0.0821 E-score; as for AGCAGGCG, -0.0572 E-score.

CGCAGGCG: the binding signal is -0.244 E-score. In the case of CGTAAAAA, the binding signal was -0.239 E-score. Take CTTAGCCC: the binding signal is -0.0707 E-score. Regarding AGAGTACT, the binding signal is -0.126 E-score.

On to CGGACCCC, for which the binding signal is -0.131 E-score.

For the sequence CCGGCAAG, the binding signal was -0.0426 E-score. In the case of CAGGCAAC, the binding signal was -0.179 E-score. As for GTAAGGCA, the figure is -0.0827 E-score. AAGTACGA: the binding signal was -0.0507 E-score. The value for CACGGAGA was 0.0319 E-score; that for GCTAAACA was -0.252 E-score.

On to CACTGACG, for which the binding signal was found to be 0.0521 E-score.

ATCCGCCA: the binding signal was 0.332 E-score.

Take ACAGACCT: the binding signal is -0.17 E-score.

Take CACCCGAG: the binding signal was determined as 0.189 E-score. For CACGTGCA, the binding signal is -0.0357 E-score. Consider ATAGCCCG, for which the binding signal stood at 0.112 E-score.

On to CGGGGGGA, for which the binding signal was 0.041 E-score. As for CGTTCAAG, the figure is -0.0607 E-score; as for CCACGAAA, -0.158 E-score. The value for CACAAGTC was -0.195 E-score; that for GAACTCAC was -0.241 E-score. As for ATCTGTGA, the binding signal is 0.236 E-score.

With CCTGTGCG, the binding signal was -0.0297 E-score. AAGAGCGT: the binding signal was -0.127 E-score. AGGAAGCC: the binding signal was found to be 0.0124 E-score. For the sequence ATTCGGAA, the binding signal was -0.0242 E-score.

Consider CCGCCACC, for which the binding signal is -0.0987 E-score. As for ATCCTTAA, the figure is 0.0756 E-score. As for AGCCTTCA, the figure is -0.221 E-score; as for GTAATGAA, -0.103 E-score; as for GGTCAGCA, -0.111 E-score. Consider ACACGCAG, for which the binding signal is 0.0397 E-score. Take GTCGGCGA: the binding signal is -0.2 E-score. As to CGTATGAG, the binding signal was -0.00144 E-score. Take TAACACCA: the binding signal came out at 0.299 E-score. For the sequence CCTTAGCA, the binding signal was -0.0861 E-score. Consider AGGCCAAC, for which the binding signal was -0.0899 E-score. With AATTGGAG, the binding signal is -0.0739 E-score. Take CCTAAATA: the binding signal is -0.0465 E-score. For CGATTGCC, the binding signal came out at 0.0541 E-score. Take ACTACGGC: the binding signal is -0.107 E-score.

AAGATTGA: the binding signal was -0.0213 E-score. On to AGTAAACT, for which the binding signal was -0.114 E-score. In the case of AATTGTGA, the binding signal is 0.185 E-score. The value for GCGTAAAA was -0.264 E-score.

Take GCATTACA: the binding signal was -0.153 E-score. As for AGGGTCTA, the figure is -0.0865 E-score; as for ACCTTCTC, 0.147 E-score. For the sequence AGTAGTAG, the binding signal was 0.0732 E-score. The value for CTCTTGGA was -0.0365 E-score. As for ACGGATAT, the figure is 0.428 E-score. Take CCCTGACC: the binding signal is -0.0314 E-score. For GGCCGAAA, the binding signal is -0.146 E-score. The value for AATGCAGT was -0.123 E-score; that for TACTTCTA was 0.179 E-score. For CTCATTAC, the binding signal was determined as 0.0761 E-score. In the case of ACAAACGT, the binding signal is -0.24 E-score. ACACCGGC: the binding signal was found to be 0.28 E-score. In the case of AATGGTCT, the binding signal is -0.139 E-score. As for ACGCTGTG, the figure is -0.163 E-score. Regarding TGCTCAAA, the binding signal is -0.202 E-score.

Consider TGGCACAA, for which the binding signal is -0.347 E-score. On to GTCCGGCA, for which the binding signal is -0.107 E-score. For the sequence GCCACATA, the binding signal worked out at 0.0342 E-score. Take TGGGACCA: the binding signal is -0.0713 E-score. For ATCGGCCA, the binding signal came to 0.0853 E-score. As for AGCATGCC, the figure is -0.241 E-score. Regarding AGTTATTC, the binding signal is -0.0532 E-score. Take GGGTTGGA: the binding signal is -0.0212 E-score. The value for CAAGGCTC was -0.174 E-score. The value for ACACTTAT was -0.0115 E-score; that for AATCGGAG was 0.0749 E-score; that for ATGGTTTG was 0.037 E-score. In the case of ATCAGGAA, the binding signal is 0.165 E-score. The value for GATGACGA was 0.00198 E-score; that for ATGAGATG was 0.243 E-score; that for CGGCAGGC was -0.0966 E-score. The value for GAGACTCA was -0.193 E-score. For CCATAATA, the binding signal came to 0.299 E-score.

AAGTGCTG: the binding signal was -0.389 E-score. Consider CGGTGCGA, for which the binding signal stood at 0.0228 E-score. CTCAAGCA: the binding signal is -0.117 E-score. In the case of GGGATTTA, the binding signal was 0.124 E-score.

As to ATTGGCGA, the binding signal came out at 0.0128 E-score.

As for ATCTAGAC, the binding signal was 0.161 E-score. With GAGCCTAC, the binding signal is -0.0272 E-score. As for GCAATGGA, the figure is -0.114 E-score; as for CTCTCGTA, -0.0431 E-score; as for GAATTTTA, -0.2 E-score. GTCCTGTA: the binding signal was -0.119 E-score. As for AGGTTACA, the figure is -0.119 E-score. As to AGGTGTCC, the binding signal was found to be 0.274 E-score. Regarding GCTCAATA, the binding signal was determined as 0.0657 E-score. As for ATACACTG, the binding signal is 0.338 E-score. As to GGGCGTTA, the binding signal was -0.166 E-score. Take AAAACCAA: the binding signal is -0.227 E-score.

With GTTGCTAA, the binding signal is -0.093 E-score. Consider ACAAAGAG, for which the binding signal is -0.0436 E-score. CAGGGCCC: the binding signal is -0.218 E-score. Consider CTGCCGGC, for which the binding signal was -0.262 E-score.

Turning to ATCTTTCA, the binding signal was 0.147 E-score. In the case of CTTAGAAG, the binding signal turned out to be 0.113 E-score.

The values above are taken from PMC10668032.
